Experimental data: the supplement of paper PMC11417369
The other results are listed elsewhere or left out.

These sequences were tested on PfHDP1 homeodomain (GST-tagged) (assay: gcPBM binding intensity (ln(normalized median fluorescence intensity)); higher = stronger DNA binding).
In short: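 Plasmodium falciparum DNA-binding domains carrying a GST tag were expressed in E. coli and applied for 1 h, at about 25 μg on average, to an Agilent 4 × 180k array. The array held primer-extended double-stranded 36-bp intergenic genomic probes together with negative controls, and binding took place in 1× PBS with 1% milk, 0.2 mg/ml BSA, 0.5% salmon testes DNA and 0.03% Triton X-100. An Alexa488 anti-GST antibody detected bound protein, and the array was scanned at 488 nm. Binding intensity is taken as the highest Masliner-normalised natural-log median intensity across replicate spots of either probe orientation.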

| Sequence | gcPBM binding intensity (ln) |
| --- | --- |
| ATAACAATTATTTATCTACACACTTTTATGTTATTT [CACACA_site7886] | 7.01 |
| AATGGCAAAATAGGCACACACACATATACAGATATA [CACACA_site4726] | 6.9 |
| TTTATATTAATTTGTGTAAATGCATATGATGAGCAT [XGTACX_negctrl_site254] | 6.94 |
| ATATATATATATATATGTACATATAATTTTTTTTTT [XGTACX_site6948] | 9.24 |
| ACAAAAAAATAAAATATATATATATATATAATATAT [CACACA_negctrl_site805] | 7.19 |
| ATAATAAAATAAATCACACATAATATAATGTAATAT [CACACA_site6144] | 6.49 |
| ATTTATATATTTATATGTACATATCTATACATATAT [XGTACX_site7580] | 6.9 |
| TTTTTAAAAAAAAAAAAATAAAAAAAAAAAAAATAT [XGTACX_negctrl_site7] | 6.19 |
| AAATAAAGAATATAAATACACACTTAAATATATATT [CACACA_site4007] | 6.44 |
| TGGACCAAACGACAAAAAAAAAGCAGAAAACAAAAA [GTGCAC_negctrl_site693] | 6.34 |
| GAATTTTTGACGATATAGGAAATAATTATCCTGAAG [XGTACX_negctrl_site61] | 6.27 |
| CTGTTAATTATATATTGTACAAAAGATATGATTATA [XGTACX_site6927] | 6.35 |
| TATTTATTTATAAACACACAAATATTTTTATTTATA [CACACA_site6889] | 6 |
| AAGAAAAGCAAACAAGTGCATAATAACAAAAAAAAT [GTGCAC_site9725] | 8.74 |
| TAAGTTCGAATTACTTAAATATTGATTTTTTTAAAA [TGCATGCA_negctrl_site114] | 5.99 |
| TCATAAAATATGTTTTGTACATAAAATTAAACAAGT [XGTACX_site1763] | 6.23 |
| AAATAAGAGAAAATATGTACATACATATATTTATAT [XGTACX_site6210] | 6.53 |
| AATACGTTTATATATTGTACGTTATATATATATATA [XGTACX_site7452] | 9.2 |
| AAATATAAATAAAGATGTACATTATCTATATGTGAT [XGTACX_site4863] | 6.4 |
| AAAAAAGAAAAAAGGACACACATAAATATACACCCG [CACACA_site5590] | 7.06 |
| TTTTTCTGTTCTTTTTGTACTTAAATATATTTATTT [XGTACX_site5658] | 7.04 |
| ACAATGAGGATATATACACACATACATTAAAAAAAT [CACACA_site6955] | 6.71 |

| Sequence | gcPBM binding intensity (ln) |
| --- | --- |
| ATGTGTGTATTTTATAGTACAGTTACAAGCATTTTT [XGTACX_site6351] | 6.69 |
| AGAATATAATTTTTATGTACATATATTAAATATATT [XGTACX_site8521] | 6.27 |
| CACAAAAATAAACACACACACATATATATATATATA [CACACA_site4704] | 9.53 |
| AATTTTCTACAAATGTGTACTAAATAAAATATTACT [XGTACX_site7175] | 6.16 |
| AGGAATTTATAAAATTGTACTTTTAATTACCTACAG [XGTACX_site3153] | 5.93 |
| TTCTTTTTGAAATATTAACACACATTTTGTTAATTA [CACACA_site9337] | 6.65 |
| CAAACATTTTAATGTACACACACCCACAGACAAACA [CACACA_site5522] | 7.02 |
| ATCCGTGTCTGAAATACACACATGATAATGTGAATG [CACACA_site8210] | 6.42 |
| ATGGAAACAAGCATCACACATATAAATATATATATA [CACACA_site4979] | 8.59 |
| ACCATGATAAATGTATTAAATGTATCATAACCTATG [CACACA_negctrl_site513] | 6.24 |
| AACGAAAGAAAAAAAGCACACACAGTTTTGAGCAAT [CACACA_site8658] | 9.03 |
| GTTTTTAAATATGCCATACACACTACTATATAATAA [CACACA_site1927] | 6.59 |
| TAATATATTAATTTTTGTACTTAATTATATGTTTTT [XGTACX_site5654] | 6.16 |
| GAAGAAAAAGAAAAAAGTACATATATTATATTATAA [XGTACX_site7870] | 6.14 |
| ATTCATATTAAATATATATATATATATATATATATA [CACACA_negctrl_site484] | 9.38 |
| TAAGATGATATAGACTGTACATATTGAACTTACAAG [XGTACX_site4290] | 6.29 |
| AATGTATTCTCTCATGCACACTTTCTTTAAGGGACC [CACACA_site5245] | 8.87 |
| ATATCTTATATCTTCACACATACACAATAAATACAT [CACACA_site5028] | 6.91 |
| CTAAGAAGTATTTACACACCAACAAGGCGAAAAAAA [CACACA_site2945] | 6.2 |
| ATATTTATATTTATGTGTACATATGAAATAATTATT [XGTACX_site7765] | 6.62 |
| TAATATATTATGAGGGGTACATAATATGGTTTATTG [XGTACX_site8301] | 6.54 |
| AGTTATAAAATATTTGCATGTAAATATATTATCTAT [TGCATGCA_site1015] | 6.61 |

| Sequence | gcPBM binding intensity (ln) |
| --- | --- |
| ACTTTTATTATTTATATACACACTTGCTGAAATGTT [CACACA_site3637] | 7.53 |
| TATGAAATGCTCCAATCACACATGAATGTAATATAT [CACACA_site5458] | 10.2 |
| ATATGATTTATAAAGTGTACCTTATTATAAGAAACA [XGTACX_site7914] | 6.42 |
| TTTTTTTTTTTTAGAGTACACACTTTTTTACATTTA [CACACA_site3836] | 6.13 |
| GTTGAAAATACAGAACGTACACGTTTGCCATATTGT [XGTACX_site2254] | 6.09 |
| CACAAATATACAAATACACACAAATATACACATATA [CACACA_site7176] | 6.79 |
| ATGAAAATATTTAAAAGTACAGAAATATAAAACCTT [XGTACX_site403] | 6.72 |
| TATTTTATACACTTGCTAAAACATTAACACATATGT [CACACA_negctrl_site1818] | 6.83 |
| AAAATATTTATCATTTGTACTTAGATGTAAACTTGA [XGTACX_site1778] | 5.89 |
| TATAAAATATAAATAAATAAATAAATATATATATAT [TGCATGCA_negctrl_site448] | 8.82 |
| AAAAAACAAAAACACACGCACACAAAAAAAAAAAAA [CACACA_site802] | 6.82 |
| TATATATATATATATTGTACTAAATCATTTAAATGA [XGTACX_site8016] | 9.01 |
| TAAAATTATTAATGAGTGCATTATAAAATCTATATA [GTGCAC_site9493] | 8.93 |
| TTTTCTTTCTTTCAAACACACATTAATTTTATTCAT [CACACA_site2734] | 6.45 |
| GTTGTTATATAAAATTGTACATAAAAAACAAAATAT [XGTACX_site5313] | 6.8 |
| ATAAATGGCTATAGCATATTGTATATGTGATTATAA [CACACA_negctrl_site948] | 6.54 |
| TCATATATTATATATTGTACAAAATAATAAGTATTT [XGTACX_site3987] | 6.47 |
| ATAATTGTTTAAAGGTGTACAATACATATATTTTAA [XGTACX_site3648] | 6.3 |
| ATTATACACCCGCGCACACACAACAAAAAAAAAAAA [CACACA_site5871] | 7.74 |
| ATGCAATTATATAGTAGTACAAATTTATAAATATAC [XGTACX_site4869] | 6.76 |
| ATATATATATATATGGGTACGTAAAAATATAATAAA [XGTACX_site4036] | 9.11 |
| AAAAAAATTACATATCCATTTTAACATAATAAATAG [GTGCAC_negctrl_site618] | 6.03 |

| Sequence | gcPBM binding intensity (ln) |
| --- | --- |
| TTACGAATAAAACAGTGTACATTGAATTTCTATGAG [XGTACX_site4771] | 6.39 |
| ATTCTATTCTCCTTCACACACAAAAATATTTCATCA [CACACA_site2360] | 6.98 |
| ATCTATGGGTAGTATACACACTGTATATTTAGGAAT [CACACA_site5569] | 6.55 |
| TTTTTGCAAAAAGAAATAATTTTATTTTAGTTCGGA [CACACA_negctrl_site1718] | 8.69 |
| TCCATGCAGAAACACACACACAAAAAAAAATTCTTT [CACACA_site4099] | 6.47 |
| AATTATATATAACGTAGTACATATTATAAACCACGT [XGTACX_site8816] | 6.23 |
| ACCTATATAAATTATACACACAAATATAAATATATA [CACACA_site2843] | 6.62 |
| ATATTCCTTTAATATTGTACTATTTTTTTCCTTATA [XGTACX_site8659] | 6.62 |
| TTGTTATTCCACCGTTGTACAGTTATATACATACAC [XGTACX_site8296] | 7.2 |
| TGTCATAAAACCGTTTGTACATATTAATAGACACCT [XGTACX_site4520] | 6.42 |
| TATAATAATAATGATAGTACGTATGAGTTCAAGAAA [XGTACX_site4918] | 6.34 |
| ACTAATAACAAAAGCTTGCACTTTTTTTTTCCTAAT | 7.04 |
| TGTATCCACATATGTACACACATATATCTGTATATG [CACACA_site5668] | 6.99 |
| TATAATTTTCTTAGTAGTACATTTTAAATCTACTAC [XGTACX_site2621] | 6.3 |
| TATGTACAAATATGTACACACACACCGATATATATA [CACACA_site4487] | 7.04 |
| ATATAAGATTACAAAAATTATGTGTAAATATTTAAT [XGTACX_negctrl_site448] | 6.63 |
| AAAAAAAAAAAAAAAAGTACAAAAATTATATTAAGA [XGTACX_site4255] | 6.2 |
| TTACTTGTTTATTTTATTTTTTTTTTTTTTTTGTTA [TGCATGCA_negctrl_site266] | 5.73 |
| AGTGAGAAATACATAATAATACATTATGTGCATATT [XGTACX_negctrl_site247] | 10.7 |
| AAGAATATTTTTTTCTGTACATATAATTTATATACG [XGTACX_site5801] | 6.05 |
| GTACACATATATATATATATATATATATATATATTA [CACACA_negctrl_site1580] | 7.73 |
